# Laboratory results taken from the supplement of paper PMC11417369.
# Some of the results follow.
# Test system: PfAP2-HC AP2 domain (GST-tagged)
# Experiment: gcPBM binding intensity (ln(normalized median fluorescence intensity)); higher = stronger DNA binding
# Procedure, shortened: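 GST-tagged P. falciparum DNA-binding domains produced in E. coli were incubated for 1 h on an Agilent 4 × 180k array of primer-extended double-stranded 36-bp intergenic genomic probes with negative controls. Binding intensity is the highest Masliner-normalised natural-log median intensity across replicate spots of either probe orientation, with bound protein detected by Alexa488 anti-GST antibody at 488 nm.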
row,Sequence,gcPBM binding intensity (ln)
1,GAATCATCCAAAATTGCATGCAAGGAAGAAGAAAAA [TGCATGCA_site764],9.71
2,CGTATGAAACATATATGTACTTATAAAAATATAACC [XGTACX_site7539],9.72
3,TTATAAATATAATATTGTACAAAATTTTAACATGTC [XGTACX_site5259],9.57
4,CTTATGTGTATAAGTAGTACTAAATTAAAATAATAT [XGTACX_site2681],9.6
5,AAATCACCTTAAGAACGTACAAACAGAAAAAAATTA [XGTACX_site4623],9.72
6,TTTATTATATTTATATGTACTTATATAATATATGCA [XGTACX_site1906],9.47
7,ATATGTATTAAGTGTACACATATAATGTATTTTGTT [CACACA_site4177],9.85
8,TCATAATGAAAACAAGCACACATACATAAAATAAAA [CACACA_site9069],10.4
9,TTATTTACCATCTCTACACACAAAAATTGATGTAGA [CACACA_site2811],9.78
10,TAAATTATATTATGCACACTTAAAAATATATTTAAC [CACACA_site3512],9.6
11,GTAAGAAAGAAAGGAAGTACGTAAGAAAGTAAGAAC [XGTACX_site1239],10.4
12,GTGTGGTTACAGACACGAACACATTTTTTAAATATT [CACACA_negctrl_site83],9.58
13,TATATATATTATATAGTGCATTGAAGAAGGGGATTT,9.64
14,TTTTTTTTTCTGTGAGTGCATGTAATAAAATAAATT [GTGCAC_site9740],9.34
15,ATATATTTATAATACACATGCAATGATATAATATAT [TGCATGCA_site20],9.66
16,CATATATACATATATACACACATATATATATATATA [CACACA_site645],9.78
17,TATTCCTTATTATAATTCTTAAATAAAAAAAAAAAA [TGCATGCA_negctrl_site45],8.76
18,CCCATTATTGTTGGGGGTACAATTTTGAATATATAT [XGTACX_site2227],9.68
19,TAGGATTTTTAGTTTATTGTAACTATTATTTTATTT [CACACA_negctrl_site829],9.87
20,ATATATAAACTGAAGGGTACAATGAAAAAAGAACTT [XGTACX_site7219],9.77
21,CATATTTGTTGACACACACACATATTTATATAAATA [CACACA_site7648],10.3
22,TTTATATGTTTAAAATGTACATGTGGTAAAAATTTT [XGTACX_site5907],9.38
23,GGGAGGATATTACACAGTACCCAGAAAATCTACGGA [XGTACX_site2551],9.41

row,Sequence,gcPBM binding intensity (ln)
1,AAACATGTATTTTATTGTACACATTCATAAATCACA [XGTACX_site1420],9.66
2,TTATAATCTTATATATGTACATATATATATTATTAT [XGTACX_site7780],9.73
3,TACATGTATGTAATATGTTTTATTTTTTTCATCTCT [XGTACX_negctrl_site79],9.62
4,AAATATATGAATAAATGTACGAAATGAATGGATGAA [XGTACX_site7108],9.8
5,CATTCAAACAAAAAAAGTACTCATCACATAATATAT [XGTACX_site1251],9.68
6,GAAATGTACAAATACGTACACACATATATATATATA [CACACA_site1541],9.78
7,AAAAAAAAAAAAAAACTTACGATTTTAAAAAGATGG [GTGCAC_negctrl_site291],9.38
8,TTTATATTGTTTTATTGTACATATATATTTATACAT [XGTACX_site6821],9.98
9,GCAAAATATTTAAAATAATATATGTGTATATTTTTA [GTGCAC_negctrl_site149],9.49
10,TTAATTAGAAATCATACACACATATATATATATATA [CACACA_site173],9.78
11,TTATATTATATATATGTGCACATTTTTAAACTTGGA,9.62
12,ACAAATAAAAATATTACACACACTATTATATTGATA [CACACA_site1494],10.3
13,GGAAGATGAAAAATAAAGCATGTGCTGTACAAACGA [CACACA_negctrl_site1625],9.75
14,AAATATTTATATGTTACACACTGTTGATAATTTTCT [CACACA_site1347],9.77
15,TTCAAATTGTTTATATGTACTTATAAAAATTGTCTG [XGTACX_site977],9.48
16,AGACCTTTAATTTGTGTGCACATAATTAGTGTACAT [GTGCAC_site9434],10.3
17,ATTAAAAAAAAAAAAAGTACTTATAATTATACTCGT [XGTACX_site4852],9.56
18,ATTTTTGTAATTATTTGTACACATTTATTTATGTGT [XGTACX_site1864],10.1
19,AAAAATATTTTGGTTTGTACATATATTTTTACAATA [XGTACX_site8691],9.6
20,ACTTATTTCGATATGTGTACTTAATATATATATTTA [XGTACX_site6616],9.82
21,TATTCTATATAATAATGTACGTGATTTAAATTTTCA [XGTACX_site6650],9.43
22,TGACCGTTTTAAGAGTGTACAAAAAAAAAAAAAAAA [XGTACX_site4141],8.97
23,AGAAGTTTAAAAAGCACACAAAAAAAAAAAAAAAGA [CACACA_site3309],9.73

row,Sequence,gcPBM binding intensity (ln)
1,AAATAAAATAAAAACATGCACACTTTATTTTTTTTA [CACACA_site2800],9.62
2,AAAATCGTGTTCTGAATACACACTAATACAAAGTTG [CACACA_site3985],9.64
3,ATTCATATATATTATACACACACATATATAAATATA [CACACA_site8228],10
4,AAAAATACCTGAATATGTACATATGATCAATGGGCC [XGTACX_site887],9.83
5,TAAAAATATAAATTTTGTACGTAAAAAATGGTTCTT [XGTACX_site1506],9.67
6,AATTATACTTCCTTCACACAGTTACATCATATATTA [CACACA_site5942],9.83
7,ATTCACATACATTACTTACACACCATATTAATATAT [CACACA_site459],10.1
8,TAAAAAATAAGATATACACACATATATATATATATA [CACACA_site2324],9.89
9,AAAAAAAAAAAAAAGGAACACACAAGTAACAATAAA [CACACA_site8792],9.9
10,TAACATATTAATAACATATTTATAATATATTAATAA [TGCATGCA_negctrl_site243],9.42
11,CCACATTAAAAAAAAACACACATATATTATAGATAT [CACACA_site6662],9.73
12,AATGTACGTTTTATAACACACACACTAATAAAAAAA [CACACA_site9286],10.1
13,ATCTTCAAAAATATTAGTACACATGTATCATGAATT [XGTACX_site3872],9.58
14,TAGATACATACACGCACACACATATATATATATATA [CACACA_site12],10.5
15,CACTAAAATAGACACACACACACACGGATATAAATA [CACACA_site7873],10.8
16,CTTAAATTTAAGTTCACACATATTGGTCATTTATAT [CACACA_site5006],9.81
17,TTTATTTGTAACGGTTGTACTTGTATATCATTATGA [XGTACX_site4281],9.63
18,TAGTGATATAATTATGTGCACTTAATACAGGTCGAT,9.8
19,GATATTTTTTTCGAAAGTACAAAAAAAAATATTTCC [XGTACX_site4389],9.28
20,AAAATTAAAAATAACACACACATATATATATTTATA [CACACA_site2776],10.1
21,ATATATATACCAAGTAGTACATTCTACAACTAATGT [XGTACX_site8653],9.64
22,ATGTATATATATATATGTACTAATTAGTAGTTTACG [XGTACX_site6272],10
23,TGTATGTATAAAAACGCATGTATGTATTTTACAATA [TGCATGCA_site767],9.66

row,Sequence,gcPBM binding intensity (ln)
1,TACTAAGAATTAATATAACAAAATAAAAAAAAAAAA [XGTACX_negctrl_site346],9.44
2,ATACAGATATATAATACACACATAAATGTAACATTT [CACACA_site5864],10.1
3,TTTGCCCAAAAAGGTACACACCACAATGTACATAAA [CACACA_site4599],9.63
4,TCATATATGGGTAGTATACACACTGTATATTTAGGA [CACACA_site2844],9.72
5,TTTTATTTAAATACACGTACATAATGTATATATATA [XGTACX_site7160],9.65
6,AAAAAAAAAAAACACACACACACAAATATATAAAAA [CACACA_site1171],10.6
7,TTTGAAAAAAATTAATGTACATTTGAAATGACATAT [XGTACX_site3902],9.38
8,GTATAAAAGTTATATACACACAACAGAATTACATAT [CACACA_site6212],9.96
9,ATACCTTCTTTTATGTTTAATTAATATACTTTTTAT [CACACA_negctrl_site1557],9.92
10,AATACATACATACATACACACATATAAATATATTAT [CACACA_site7650],10.2
11,TACTAATATAATAAAAGTACTTAAATAAATATATGT [XGTACX_site2220],9.64
12,GAACATTTCACACAAAAAAAAAAAAATATATATATA [TGCATGCA_negctrl_site518],9.54
13,TCTTTTTAAATATATACACACCGTGTCTACAGATAC [CACACA_site5784],9.88
14,ACATGATGTCATAAATGTACGCACACATACATAAAC [XGTACX_site1198],9.93
15,TAAATAAAAAAAAATCGTACATATATTTTATATATG [XGTACX_site3293],9.47
16,TTTTCAAAAATATACACACACATAAATATCTGTATA [CACACA_site4586],10
17,TATTTACATTTTAGTAGTACATATATGTATATATAT [XGTACX_site6839],9.77
18,TCGTAATAATAGTTGAGTACGCACTAATATGTCAAT [XGTACX_site643],9.85
19,AATTATATGCTTAATACGCACACGGGAAAAAAAAAA [CACACA_site1376],9.89
20,TGTTTGTAATTATGTATGCACTTTTTTGTATGTGTG [GTGCAC_site9668],9.88
